Data on 86 sequences can be found in the supplement of paper PMC3334620.

Whole data set: some 33,000 sequences, median “E-score (-0.5 to 0.5)” near -0.012, cut for the highest 2% near 0.27. The list shows a part of the results.

The experiment has as its target T1, Vhr1 (UniProt P40522).
T1 sequence: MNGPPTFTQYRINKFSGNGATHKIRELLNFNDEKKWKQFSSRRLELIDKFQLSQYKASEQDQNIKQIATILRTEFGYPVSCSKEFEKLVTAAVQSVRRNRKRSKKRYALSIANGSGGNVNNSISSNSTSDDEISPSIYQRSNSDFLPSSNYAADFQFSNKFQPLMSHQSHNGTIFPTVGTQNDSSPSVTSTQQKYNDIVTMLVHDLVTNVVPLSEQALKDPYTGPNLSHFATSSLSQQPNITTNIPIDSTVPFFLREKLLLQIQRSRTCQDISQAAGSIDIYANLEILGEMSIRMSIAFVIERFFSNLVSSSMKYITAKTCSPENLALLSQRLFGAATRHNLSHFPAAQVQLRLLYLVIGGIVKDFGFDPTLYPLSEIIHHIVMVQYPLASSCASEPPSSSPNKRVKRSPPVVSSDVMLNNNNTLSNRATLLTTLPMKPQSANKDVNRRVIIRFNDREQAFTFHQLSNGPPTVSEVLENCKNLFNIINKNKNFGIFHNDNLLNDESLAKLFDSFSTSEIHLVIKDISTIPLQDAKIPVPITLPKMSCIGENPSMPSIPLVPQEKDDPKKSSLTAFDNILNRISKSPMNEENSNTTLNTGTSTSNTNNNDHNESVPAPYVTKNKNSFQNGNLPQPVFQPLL
Briefly: PBM E-score (8-mer binding enrichment) (E-score (-0.5 to 0.5)); higher = stronger / more preferred TF binding; most listed sequences are background and not binding sites. The following applies: protein concentration: 200 nM; construct: GST-full length. The gist of the method: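 Detection of bound protein used fluorescent anti-GST, with scans normalised by masliner. The proteins were GST-tagged yeast transcription factors applied at about 100-200 nM to universal all-10-mer Agilent arrays made double-stranded by primer extension. Each ungapped eight-base word, pooled with its reverse complement, was scored with an E-score from the Universal PBM Analysis Suite.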
Take AAGTGCTA: the “PBM E-score” value is -0.0633.

For GCAGTTAA, the “PBM E-score” value was determined as 0.0301.

On to TCCTACCA, for which the “PBM E-score” value is -0.189.

Regarding ATTCCTTG, the “PBM E-score” value was -0.0414.

On to GAAGGAAA, for which the “PBM E-score” value was -0.212.

Take TGAGGGCA: the “PBM E-score” value was -0.115.

Turning to GGGTCAAC, the “PBM E-score” value amounted to 0.243.

ACATCTAC: the “PBM E-score” value is 0.155.

Turning to GGGTTCGA, the “PBM E-score” value came to 0.0751.

On to AGCCGCAC, for which the “PBM E-score” value came to 0.00836.

In the case of AACGTCAG, the “PBM E-score” value was -0.184.

As to CATCGTTC, the “PBM E-score” value was -0.0439.

As for AACGCTGT, the “PBM E-score” value was -0.0743.

Regarding AATATCCC, the “PBM E-score” value was 0.0723.

For ATTAGGGC, the “PBM E-score” value was -0.153.

For CAAATGCG, the “PBM E-score” value was determined as 0.203.

Consider ATTGAACC, for which the “PBM E-score” value worked out at 0.133.

CAGAGTTC: the “PBM E-score” value is -0.0458.

As to CCCGCTAG, the “PBM E-score” value was -0.249.

With CGCCTCAC, the “PBM E-score” value is -0.096.

GCTAAAAC: the “PBM E-score” value was -0.203.

For GAACTTCA, the “PBM E-score” value was -0.297.

As for GGTGTCAA, the “PBM E-score” value came to 0.0319.

Take AGTGCCGA: the “PBM E-score” value was -0.0946.

GAGATAGC: the “PBM E-score” value is -0.186.

In the case of GAATTTCA, the “PBM E-score” value was -0.31.

As to CTCATTGC, the “PBM E-score” value was -0.0552.

Turning to CCAGGCAC, the “PBM E-score” value was found to be 0.0544.

For CCCTCTCG, the “PBM E-score” value is -0.307.

As to CAACCAAC, the “PBM E-score” value is -0.0512.

As for TTCGGAAA, the “PBM E-score” value is -0.25.

ATTAGATA: the “PBM E-score” value was -0.0732.

Take AGCCTCCA: the “PBM E-score” value was -0.123.

CTAGCCTA: the “PBM E-score” value was -0.153.

On to CCTGACGA, for which the “PBM E-score” value stood at 0.0859.

CGCCCTTC: the “PBM E-score” value was -0.179.

On to AGGACGGG, for which the “PBM E-score” value is -0.0357.

For TAGCGTAA, the “PBM E-score” value is -0.0878.

Regarding CTCTGCGC, the “PBM E-score” value came out at 0.0404.

In the case of AGTATTGC, the “PBM E-score” value is 0.0488.

Turning to GGTACAAC, the “PBM E-score” value came out at 0.161.

TCCCACGA: the “PBM E-score” value came to 0.187.

As for CCGGACTA, the “PBM E-score” value was 0.108.

Regarding GCTAGGTA, the “PBM E-score” value is -0.148.

Turning to AGGGTAAG, the “PBM E-score” value came to 0.198.

With TAAACGCA, the “PBM E-score” value was -0.125.

Take AGATGAAT: the “PBM E-score” value worked out at 0.06.

CACACGAC: the “PBM E-score” value is -0.014.

With AAGTTGTG, the “PBM E-score” value was -0.00706.

Turning to ATTACACG, the “PBM E-score” value is 0.0576.

Regarding AACAAATA, the “PBM E-score” value was 0.116.

In the case of AAAAACGT, the “PBM E-score” value was -0.204.

For the sequence AGGCTTAC, the “PBM E-score” value was -0.291.

Take CGGCATAC: the “PBM E-score” value is -0.00977.

AGGCTGAT: the “PBM E-score” value was 0.0387.

On to CCAAAAAA, for which the “PBM E-score” value is -0.139.

Take GCTCCCCC: the “PBM E-score” value was -0.0539.

Consider GGAGCGAC, for which the “PBM E-score” value stood at 0.0968.

With CGTTGGGC, the “PBM E-score” value was -0.0247.

Turning to GAACTCTA, the “PBM E-score” value was -0.0495.

Regarding GAACGTAC, the “PBM E-score” value was -0.0645.

For ATAACTCA, the “PBM E-score” value stood at 0.206.

Consider CTCTTTAA, for which the “PBM E-score” value was -0.238.

Consider ACTCTTGA, for which the “PBM E-score” value was -0.0294.

For GGGCATAA, the “PBM E-score” value is -0.0397.

As for TCAATTAA, the “PBM E-score” value was -0.206.

With CATACGTA, the “PBM E-score” value was found to be 0.128.

For the sequence GTGATCTA, the “PBM E-score” value is -0.0494.

Regarding ACCACATA, the “PBM E-score” value came to 0.125.

As to ACGCATCG, the “PBM E-score” value is -0.162.

Turning to GATAGATC, the “PBM E-score” value was -0.0723.

On to CCAGTTGA, for which the “PBM E-score” value is -0.0854.

Consider GAGAAAGC, for which the “PBM E-score” value was -0.189.

In the case of ACTCCTGA, the “PBM E-score” value was 0.257.

For the sequence AACCACGT, the “PBM E-score” value is 0.00707.

Consider TACCTGCA, for which the “PBM E-score” value was -0.0568.

Take CACTCGGA: the “PBM E-score” value came to 0.239.

On to ACCCCGCT, for which the “PBM E-score” value is 0.0145.

As to GGATGCTA, the “PBM E-score” value was -0.109.

As for ATGTCCCA, the “PBM E-score” value is -0.215.

With ATTCCAAG, the “PBM E-score” value is -0.00964.

AATCATAA: the “PBM E-score” value came out at 0.131.

Regarding TAAGTGCA, the “PBM E-score” value is -0.0455.

Turning to ATGTGGTC, the “PBM E-score” value was found to be 0.167.

CCGCTACC: the “PBM E-score” value turned out to be 0.0111.

AGACACTA: the “PBM E-score” value turned out to be 0.0556.
